Test results: ChEMBL document CHEMBL4888484, “Replenishing the malaria drug discovery pipeline: Screening and hit evaluation of the MMV Hit Generation Library 1 (HGL1) against asexual blood stage Plasmodium falciparum ,using a nano luciferase reporter read-out” (2022)
Several values for one entry are separate records, joined by “and”; a condition that tells them apart may be missing. Equal entries are not always repeated. The campaign covered roughly 150,000 compounds. About 540 (0.36%) showed an effect of 50% or more. Some of the results follow.

Test system: Plasmodium falciparum
Assay: Primary screen in NF54 nanoGlo assay, in single point, at 2uM, 72h; a lower Z score goes with more inhibition
Assay type: functional, Erythrocyte
Conditions: timepoint 72 hour

Structure (SMILES)	% Inhibition	Z score	% Inhibition (2 µM)	Z score (2 µM)
O=C(CNCc1cccc(Cl)c1)N1CCc2ccccc2C1	-8%	0.79	–	–
CNC(=O)c1cnc(C=Cc2csc(-c3ccco3)n2)s1	-14%	2.22	–	–
CCn1c(=O)sc2cc(NC(=O)c3ccc(C)cc3)ccc21	5%	-0.91	–	–
CCCc1nnsc1C(=O)NC1CCCC(OC(=O)Nc2ccccc2)C1 (stereo not drawn)	-7%	1.28	–	–
COc1cnc(N2CCC3(CC2)[C@H](O)C[C@@H]3OCCO)nc1	1%	-0.25	–	–
C=C[C@H]1CCN(C(=O)c2n[nH]c(=O)c3ccccc23)C1	-11%	2.34	–	–
Cc1cnc(NC(=O)N2CCC3CCC(C2)N3C(C)C)s1 (stereo not drawn)	-5%	0.67	–	–
CCCC1(C)C(=O)NCCN1C(=O)CC1CCCCO1 (stereo not drawn)	-13%	1.14	–	–
Cc1nn(Cc2ccccc2)c(Cl)c1C(=O)NCC1(c2ccc(Cl)cc2)CCOCC1	2%	-0.29	–	–
C#CCN(C(=O)NC(C)(C)C)C1CCCC1	-2%	0.28	–	–
Cc1cc(C)nc(N/C(=N/c2ccccc2)NC(=N)NC(=O)c2ccccc2)n1	–	–	-10% and -5%	1.08 and 0.81
COc1ccc(NC(=O)c2ccc(COc3ccc4c(c3)[C@H](c3ccc(F)cc3)N(C(=O)C(C)C)CC4)o2)cc1	-11%	1.9	–	–
Cc1n[nH]c(C)c1CC(=O)NC1CCCC(c2ccccc2)C1 (stereo not drawn)	1%	-0.18	–	–
COc1ccc(Cl)cc1C1(CNC(=O)N2C[C@H](C)OC(C)(C)C2)CCOCC1	-7%	1.22	–	–
CCn1ccc(C(=O)NCc2cc3n(n2)CCN(C2CCCCC2)C3)cc1=O	0%	0.08	–	–
CCCS(=O)(=O)N1CCC[C@@H]1Cc1noc(-c2cnccn2)n1	-6%	0.9	–	–
Cc1nc[nH]c1CN1CCC2(CC1)C[C@H](c1ccccc1)C(=O)N2C	-1%	0.27	–	–
CN(C)C(=O)NCCNC(=O)c1ccc(Cl)s1	-5%	0.59	–	–
CCn1ccc(C(=O)N2CCc3cc4ccc3[C@@H]2c2cccc(c2)OCCCNC(=O)c2cc(ccc2O)O4)cc1=O	7%	-1.26	–	–
C[C@@]1(c2ccc(Cl)s2)NC(=O)N(Cc2cccc(F)c2F)C1=O	-10%	0.87	–	–
Cc1ccc(Cl)cc1NC(=O)C/C(N)=N/O	-8%	1.03	–	–

Structure (SMILES)	% Inhibition	Z score	% Inhibition (2 µM)	Z score (2 µM)
O=C(O)c1cc(NS(=O)(=O)c2ccc(Cl)s2)ccc1N1CCC(N2CCCCC2)CC1	-7%	0.7	–	–
CCCS(=O)(=O)NC(=O)c1cccc(F)c1F	0%	-0.05	–	–
CCn1cc(NS(=O)(=O)c2cc(C(=O)O)cc3c2CCCC3)cn1	6%	-1.15	–	–
O=C(CCn1ccnn1)N1CCc2cc(Br)cc(F)c21	-3%	0.37	–	–
COc1cc(N(CC(C)C)C(=O)c2ccc(C#N)cn2)ccn1	1%	-0.16	–	–
COc1ccc(-c2cnc3ncnn3c2N2CCN(Cc3ccc(C(C)(C)C)cc3)CC2)cc1	-4%	0.41	–	–
CC(C)n1cccc1C(=O)Nc1ccccc1OC[C@H]1CCCO1	-7%	1.32	–	–
O=C(NCc1ccccn1)c1nc(Cn2cc(Cl)cn2)no1	3%	-0.35	–	–
O=C(c1cc(Cl)c[nH]c1=O)N1CCC(n2cc(C3CC3)nn2)CC1	3%	-0.55	–	–
O=c1c2ccccc2c(CNS(=O)(=O)c2cccnc2)nn1C1CCCC1	-12%	2.31	–	–
CCN(Cc1cccc(OC)c1)c1cc([C@H]2CCOC2)nc(N)n1	-1%	0.24	–	–
Cc1cc(CNC(=O)C[C@H](C)NC(=O)OC(C)(C)C)c(C)o1	1%	-0.09	–	–
Cc1csc(CN(Cc2ccno2)C[C@H]2CCCO2)n1	-12%	1.06	–	–
CC[C@H](O)Cn1nc(C2CC2)nc1Cc1ccccc1OC	-14%	2.34	–	–
O=C(Cn1nc(C(=O)N2CCc3ccccc32)ccc1=O)N1CCCCCC1	-12%	2.02	–	–
Cn1cnc2cc(C(=O)NCCOCc3cccc(Cl)c3)cnc21	2%	-0.23	–	–
Cn1ncc2c(NC3CN(c4ccc(C(F)(F)F)cc4)C3)ncnc21	-7%	1.27	–	–
Cc1cccc(Cl)c1NC(=O)N1CCC[C@@H]1CN1CCOCC1	-13%	1.16	–	–
Cc1ccnc(-c2ccccc2CN2CCOCC2)n1	-4%	0.56	–	–
O=C(N[C@H]1CO[C@@H](CN2CCOCC2)[C@@H]1O)c1cccc(F)c1	5%	-0.84	–	–
CCCCNC(=O)CN(C)c1cc(C2CC(O)C2)ncn1 (stereo not drawn)	-2%	0.28	–	–

Structure (SMILES)	% Inhibition	Z score	% Inhibition (2 µM)	Z score (2 µM)
C#CC(=O)NCCNC(=O)c1cc(Br)c(C)cc1OC	-14%	2.56	–	–
COc1ccc2[nH]c3c(c2c1)CCN(C(=O)Nc1cccc(Br)c1)[C@@H]3c1ccc(C)cc1	14%	-1.67	–	–
O=S(=O)(c1ccc2c(c1)OCCO2)N1CC[C@H](Cc2ccc(CO)cc2)C1	-22%	2.38	–	–
Cc1cc(C(=O)N2CCC[C@H]2c2cn[nH]c2)c(C)n1-c1nccs1	-2%	0.35	–	–
CCOc1ccccc1CN1CCC(CNC(=O)c2cc(=O)[nH]c3ccc(S(=O)(=O)N4CCCCC4)cc23)CC1	-2%	0.28	–	–
O=C(NCc1nccnc1-c1ccco1)NC1CCCC1	16%	-2.07	–	–
Cc1ccc(N2S(=O)(=O)c3ccccc3S2(=O)=O)cc1	4%	-0.44	–	–
O=C(c1cccnc1)N1CCC[C@H]1c1ccc2c(c1)OCCO2	-9%	0.98	–	–
COc1cc(OC)cc(N(C)Cc2nnc(C)o2)c1	-4%	0.56	–	–
Cc1nsc(N2CC=CC23CCCCC3)n1	-4%	0.5	–	–
COCc1cc(=O)n(CC(=O)Nc2cc(C)ccc2OC)c(N2CCCC2)n1	-10%	1.52	–	–
C[C@H]1CN(c2cc(NCC3CC3)ncn2)CCS1(=O)=O	-14%	1.4	–	–
Cn1cc(-c2cc(CNC(=O)N3CCNC3=O)ccn2)cn1	-8%	1.21	–	–
NC(=O)c1cnc(NC(=O)CCc2cccc(F)c2F)c(Cl)c1	-14%	1.91	–	–
Clc1ccc(-c2nn(-c3ccccc3)cc2-c2nc(-c3ccccc3)c(-c3ccccc3)[nH]2)cc1	-15%	2.91	–	–
O=C(Cc1ccc(Cl)cc1)Nc1nnc(CCCOc2ccccc2)s1	-8%	1.63	–	–
C[C@@H](CN1CCCC1=O)NCc1sc2ccccc2c1Cl	-1%	0.15	–	–
Cn1cnc2c(C(=O)NCCN3CCOCC3)nn(-c3ccccc3)c2c1=O	5%	-0.49	–	–
c1cc(-c2ccc(-c3cn(CC4CCCCC4)nn3)o2)n[nH]1	-4%	0.76	–	–
COCCNC(=O)N1CC(c2nc(C3CC3)no2)C1	-18%	3.4	–	–
Cn1cc(-c2ccc(OCc3ccccc3)c(F)c2)c(C(=O)O)n1	-3%	0.27	–	–

Structure (SMILES)	% Inhibition	Z score	% Inhibition (2 µM)	Z score (2 µM)
O=C(O)c1cccc(NCn2nnc3ccccc32)c1	-9%	1.24	–	–
CCN(C[C@H](C)C#N)C(=O)CNc1cc(F)c(F)cc1F	-7%	0.89	–	–
CCc1nc(NC(=O)[C@H]2CCCN(C(=O)c3ccoc3)C2)sc1C	-15%	1.52	–	–
CCOC(=O)c1ccccc1NC(=O)Cn1c(=O)n(CC)c(=O)c2sc(N3CCCC3)nc21	-4%	0.76	–	–
NC(=O)N1CCC(NC2(c3cccc(C(F)(F)F)c3)CCC2)CC1	2%	-0.21	–	–
CCn1c(CC2CCN(c3noc(C(C)C)n3)CC2)nn(C)c1=O	-7%	0.99	–	–
COc1ccc(-c2noc(CCC(=O)Nc3nnc(C(C)C)s3)n2)cc1OC	-3%	0.48	–	–
Cn1nncc1CN1CCN(Cc2cccc(Cl)c2Cl)CC1	-8%	1.25	–	–
Cc1ccc(C(=O)CCCN2C[C@@H]3CC[C@H]2CN(C(=O)N(C)C)C3)cc1	-24%	3.44	–	–
CNc1ccc(C(=O)N[C@H]2CC[C@H](CO)CC2)cn1	-11%	1.32	–	–
CC(C)(C)n1nc(-c2ccccc2)c(NC(=O)NC2CCCCC2)c1N	-8%	1.23	–	–
COCCCNC(=O)Nc1cc(Cl)c(OC)c(Cl)c1	1%	-0.22	–	–
CCCc1nc(Cn2nnc(C3CC3)n2)no1	-8%	1.5	–	–
Fc1ccccc1-c1cc(NCCCn2ccnn2)n2nccc2n1	-6%	1.16	–	–
Cc1[nH]c2c(ccc3cccnc32)c1C1C(CC(N)=O)C1(C)C (stereo not drawn)	8%	-1.13	–	–
CCNC(=O)NC(=O)[C@H](C)Nc1cccc(C(=O)NC)c1	0%	-0.08	–	–
C=CCO[C@H]1[C@H](NC(=O)COC)c2ccccc2C12CCN(Cc1[nH]c3c(C)cccc3c1C)CC2	-8%	1.63	–	–
CCn1nccc1-c1csc(S(=O)(=O)Nc2cc(C)ccc2C)c1	-14%	1.73	–	–
CCCn1cc(-c2ccnc(N[C@@H](C)c3cnn(C)c3C)n2)c(C)n1	-19%	2.46	–	–
CC[C@@H](C(=O)NCc1ccccc1)n1cnc2onc(-c3ccc(Cl)cc3)c2c1=O	-6%	0.85	–	–
CN(Cc1cc(C(F)(F)F)ccc1Cl)[C@H]1CCc2nn(C)c(=O)n2CC1	37%	-4.92	–	–
